Among all 43,000 compounds or so, about 200 (0.47%) were called active. Inconclusive results (about 12%) are left out. Calls come from the whole dose curve; as a rule, active = well fitted cell-killing curve with a large enough effect; inconclusive = small, poorly fitted or top-dose-only effect, or effect the other way; inactive = flat fitted curve, though single readings scatter. Some of the results follow.
Test: Cell viability qHTS assay in S16 Pmp22-F2sN cells; note: nearly all actives have a fitted effect of over 65% in size
Details: S16 Pmp22-F2sN Schwann cells viability, CellTiter-Glo, 24 h; series mostly up to 57.5 µM; activity change, negative = cytotoxicity: at the top concentration
Outline: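 S16 Pmp22-F2sN Schwann cells (500-1,000/well) in phenol-red-free DMEM with 10% FBS received 23 nL compound by pin tool for 24 h at 37 °C. Viability was then read as CellTiter-Glo luminescence after 15 min at room temperature.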
% is set by controls: 0 for no effect and ±100 for the full control effect; potency is the fitted concentration of half-maximal effect.

SMILES | activity change, negative = cytotoxicity | Potency
COc1ccc(NC(=O)c2oc3ccccc3c2NC(=O)Cc2cccs2)cc1 | inactive: -3.06% | –
Cc1ccc(NC(=O)c2sc3nc(-c4ccc(F)cc4)ccc3c2N)cc1F | inactive: 2.74% | –
CN1CCc2nc3sc(C(=O)Nc4cccc(C#N)c4)c(N)c3cc2C1 | inactive: 21.9% | –
Cc1cc(C)cc(Nc2nnc(-n3nc(C)cc3C)c3ccccc23)c1 | inactive: -24.1% | –
CC1=C(c2ccc(C)c(C)c2)S(=O)(=O)N=C1N1CCC(C(=O)Nc2cccc(F)c2)CC1 | inactive: 2.36% | –
COc1cccc(NC(=O)CSc2nnc(-c3cccs3)o2)c1 | inactive: 8.76% | –
COc1ccccc1NC(=O)Cn1c(=O)n(-c2cccc(Cl)c2)c(=O)c2c1c1cc(C)ccc1n2C | inactive: 11.8% | –
CCc1ccccc1NC(=O)CSc1ncc(S(=O)(=O)c2ccccc2)c(=O)[nH]1 | inactive: 8.45% | –
Cc1cccc(OCC(=O)Nc2ccc(Cl)c(-c3nc4ccccc4[nH]3)c2)c1 | inactive: 0.498% | –
COc1cccc(C(=O)Nc2c(C(=O)c3ccc(F)cc3)oc3ccccc23)c1 | inactive: 4.45% | –
COc1cc(C2c3c(oc4ccc(C)cc4c3=O)C(=O)N2Cc2ccccc2)ccc1O (configuration not stated) | inactive: 6.2% | –
Cc1oc(-c2ccc(Cl)cc2)nc1CSCC(=O)NCc1ccccc1Cl | inactive: -13.4% | –
CC(CNC(=O)Cn1c(-c2cccs2)cc2ccccc21)c1ccccc1 (configuration not stated) | inactive: -3.63% | –
CCC(=O)N1CCc2cc(Br)cc(S(=O)(=O)N3CCCC(C(=O)NCc4ccc(OC)cc4)C3)c21 (configuration not stated) | inactive: 20.6% | –
COC(=O)Cc1c(C)c2ccc3c(c2oc1=O)CN(Cc1ccccc1OC)CO3 | inactive: 9.13% | –
Cc1ccc2c(CC(=O)N(Cc3ccc(Cl)cc3)Cc3ccco3)coc2c1 | inactive: -0.88% | –
Cc1ccccc1Nc1cc(C(=O)NCCc2ccc(Cl)cc2)c2ccccc2n1 | inactive: -26.5% | –
CCCOc1ccc(C2c3c(-c4ccccc4O)n[nH]c3C(=O)N2CCCOCC)cc1OCC (configuration not stated) | inactive: -22.8% | –
O=C(Nc1cccc(F)c1)c1cccc2c1C(=O)N(C1CCCCC1)C2 | inactive: -18.9% | –
O=C(Nc1ccc(F)cc1)C1CCCN(c2ncnc3c2nc2n3CCCCC2)C1 (configuration not stated) | inactive: 3.26% | –
Cc1ccc(N(C)C(=O)Cn2cc(S(=O)(=O)N3CCCC3)c(S(=O)(=O)N3CCCC3)c2)cc1 | inactive: 2.32% | –
COc1ccc(CNC(=O)c2cc3c(=O)n4cccc(C)c4nc3s2)cc1 | inactive: 2.11% | –
Cc1c(C(=O)Nc2ccc(F)c(F)c2)oc2ccc(S(=O)(=O)N(C)C3CCCCC3)cc12 | inactive: -3.9% | –
CCOC(=O)c1ccc(NC(=O)C(C)N(c2ccc(OCC)cc2)S(C)(=O)=O)cc1 (configuration not stated) | inactive: 1.14% | –

SMILES | activity change, negative = cytotoxicity | Potency
CCOC(=O)c1[nH]c(C)c(CCC(=O)NC(C)c2ccccc2)c1C (configuration not stated) | inactive: -9.15% | –
O=C(Nc1cc2ccc(O)cc2oc1=O)c1ccc(F)cc1 | inactive: -5.69% | –
CCN(CC)CCn1c2c(c(SCC(=O)Nc3cccc(C(F)(F)F)c3)nc1=O)CCC2 | inactive: -15.8% | –
Cc1cccc(CNC(=O)Cc2ccc(NC(=O)N3CCCCc4ccccc43)cc2)c1 | inactive: -2.23% | –
CCOc1ccc(-c2cn3c(n2)sc2cc(C(=O)NCCCN(CC)CC)ccc23)cc1 | – | active: 10 µM
COc1ccc(CCNC(=O)CCCCn2c(=O)c3ccccc3n(Cc3ccc(Cl)cc3)c2=O)cc1OC | inactive: 10.5% | –
COc1cccc(CNC(=O)c2oc3ccc4c(c3c2C)C(=O)CC(C)(C)O4)c1OC | inactive: -27.6% | –
COc1ccc(NS(=O)(=O)c2ccc3c(c2)CC(C)N3C(C)=O)c(OC)c1 (configuration not stated) | inactive: -26.4% | –
Cn1c(=O)c2c(n3ncnc13)NC(=O)CC2c1cccc(F)c1 (configuration not stated) | inactive: -4.33% | –
CCOC(=O)C1=C(CN2CCN(c3cccc(OC)c3)CC2)NC(=O)NC1c1ccc(OC)cc1 (configuration not stated) | inactive: -4.45% | –
COc1ccc(NC(=O)c2oc3c(c2C)-c2nn(Cc4ccccc4Cl)cc2CC3)cc1OC | inactive: -3.72% | –
Cc1ccc(-n2c(=O)c3c(cnn3C)n(CC(=O)Nc3c(C)cccc3C)c2=O)cc1 | inactive: 10.2% | –
C=Cc1ccc(CSc2nnc(C)n3c2cc2occc23)cc1 | inactive: -12.9% | –
COc1cccc(-c2nc(CS(=O)(=O)CC(=O)NCCc3ccc(OC)c(OC)c3)c(C)o2)c1 | inactive: 1.44% | –
O=C(Cn1ccn(-c2cccc(Cl)c2)c(=O)c1=O)c1ccc(F)cc1 | inactive: 7.06% | –
CCOc1ccc(CNC(=O)c2[nH]c3ccccc3c2Sc2ccc(C)cc2)cc1 | inactive: 10.4% | –
Cc1ccc(NC(=O)CCS(=O)(=O)c2ccc(Br)cc2)c(C)c1 | inactive: 0.22% | –
CC(C)c1ccccc1NC(=O)CN(c1ccccc1)S(=O)(=O)N(C)C | inactive: -4.68% | –
Cc1ccc2c(c1)CC(C)N2S(=O)(=O)c1nnc(NC(=O)c2ccccc2F)s1 (configuration not stated) | inactive: 1.42% | –
CCOc1ccc(-c2nn(-c3ccccc3)cc2C2NC(=O)NC(C)=C2C(=O)OC(C)C)cc1C (configuration not stated) | inactive: -5.03% | –
Cc1ccc(-n2nc(CO)c(C(=O)NCCCCc3ccccc3)n2)cc1 | inactive: 2.24% | –
Cc1cc(C)cc(NC(=O)CCS(=O)(=O)c2ccc3nc(C)sc3c2)c1 | inactive: 0.2% | –
O=C1C(c2ccc(F)cc2)N(Cc2ccccc2Cl)C(=O)CN1C1CCCCC1 (configuration not stated) | inactive: -13.5% | –

— PubChem BioAssay AID1508642 (National Center for Advancing Translational Sciences (NCATS), 2021)
